According to the supplement of paper PMC6531468:
The other results are listed elsewhere or left out. These are enrichments in a pooled selection; single values are uncertain. Each score is taken over the longer molecules that contain the sequence shown.

Each sequence was assayed on IMP3 RRM1-2 (assay: 6-mer SELEX enrichment z-score vs GST control; IMP3 is the RNA-binding protein IGF2BP3; higher = more enriched by binding). Settings: construct: RRM1-2 (1-163); SELEX round: R2.
Method: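 SELEX-seq with GST-tagged IMP3 RRM1-2 (Met1-Asn163) and an N40 RNA pool, round 2. 6-mer enrichment z-score normalised to GST SELEX. RNA written as DNA (T = U).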

Sequence of IMP3 RRM1-2 (chain, as listed by the source): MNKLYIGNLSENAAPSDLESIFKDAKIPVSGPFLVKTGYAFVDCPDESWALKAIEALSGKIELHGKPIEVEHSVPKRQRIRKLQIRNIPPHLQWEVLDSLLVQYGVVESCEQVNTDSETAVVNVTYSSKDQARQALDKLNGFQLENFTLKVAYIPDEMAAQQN

Sequence	6-mer SELEX enrichment z-score
TAAAGT	-0.51
AAACTA	-1.26
TGACCT	-0.651
ATTGGG	0.264
CTTGAT	0.037
CGTACG	-0.297
CCCAAC	-0.818
ACCTCT	-0.123
GGTTGA	0.033
AACCAC	1.08
GCTCAG	0.296
CCAATA	-0.402
AAGCTT	-0.248
TACACA	2.69
TCAGGC	0.855
ATAGCC	-0.295
GTACGA	-0.599
TGCTCA	0.374
TCACCG	0.286
GGCGAA	-0.287

Sequence	6-mer SELEX enrichment z-score
GGTTTG	0.338
CGCTGG	0.009
AATACT	-0.332
GAGAGT	-0.404
TTTACG	-0.115
CTTCGA	-0.017
ACTACC	-0.628
CCATAG	0.263
CTTGAA	-0.639
TCGGAA	-0.386
ATTGCG	0.093
GCCAGC	0.004
TCGGGG	0.268
TAAATT	-0.393
AGCTTT	0.181
CCTTGC	-0.003
TCCGGA	-0.522
AGGCGA	-0.129
TACCGT	-0.194
TCATTT	1.22
